Here are results for 14 sequences from the supplement of paper PMC12645437, “Orthogonal IMiD-Degron Pairs Induce Selective Protein Degradation in Cells” (ACS Chemical Biology, 2025).

Some of the results follow.
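Further: jurkat cells carrying a lentiviral library of mutant zinc finger degrons fused to EGFP plus mCherry, mCherry+ cells FACS sorted, degron abundance counted by next-generation sequencing.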

The target of the assay is no compound (DMSO). The assay can be described thus: log2 fold change of degron read counts, EGFP-low vs EGFP+ sorted cells; higher = lower degron-EGFP level without compound (poor expression or instability). To be noted: compound: DMSO control; 18 h.
For FICEVCGAWFTQKGNLLRHIKL, the “log2 fold change of degron read counts” value is -0.192.

As to FLCPQCGAHFTQKGNLLRHIKL, the “log2 fold change of degron read counts” value was -0.626.

As to FECDICGACFTQKGNLLRHIKL, the “log2 fold change of degron read counts” value was -2.56.

FCCPVCGAHFTQKGNLLRHIKL: the “log2 fold change of degron read counts” value is -0.0975.

Turning to FECEICGRHFTQKGNLLRHIKL, the “log2 fold change of degron read counts” value is -1.52.

For FSCPICGRFFTQKGNLLRHIKL, the “log2 fold change of degron read counts” value is -0.733.

Consider LSCEICGFQCTQKGNLLRHIKL, for which the “log2 fold change of degron read counts” value was -1.25.

As for FCCNQCGRQFTQKGNLLRHIKL, the “log2 fold change of degron read counts” value is -0.454.

As to LMCEICGFNCTQKGNLLRHIKL, the “log2 fold change of degron read counts” value is 0.107.

For the sequence FLCNVCGATFTQKGNLLRHIKL, the “log2 fold change of degron read counts” value is -1.37.

Take FACSVCGHGFTQKGNLLRHIKL: the “log2 fold change of degron read counts” value came out at 0.149.

With FCCEQCGAEFTQKGNLLRHIKL, the “log2 fold change of degron read counts” value was -2.32.

On to FICPICGHIFTQKGNLLRHIKL, for which the “log2 fold change of degron read counts” value turned out to be 0.783.

Consider LNCNQCGFPCTQKGNLLRHIKL, for which the “log2 fold change of degron read counts” value is 0.355.
